# Measured values taken from paper PMC7819943, “Rice protein-binding microarrays: a tool to detect cis-acting elements near promoter regions in rice”.
# Some of the results follow.
# Target: T1, OsWOX13 (Oryza sativa, UniProt Q5QMM3 1-267)
# T1 sequence: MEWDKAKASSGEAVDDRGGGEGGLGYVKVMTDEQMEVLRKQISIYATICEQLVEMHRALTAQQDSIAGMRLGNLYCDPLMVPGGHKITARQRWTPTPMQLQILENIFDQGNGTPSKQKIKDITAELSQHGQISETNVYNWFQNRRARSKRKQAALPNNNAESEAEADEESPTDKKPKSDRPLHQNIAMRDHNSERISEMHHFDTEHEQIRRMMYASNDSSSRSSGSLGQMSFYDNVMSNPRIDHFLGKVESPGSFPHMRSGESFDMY
# Assay: protein-binding microarray (RPBM); PBS, 2% BSA, 51.3 ng/ul salmon testes DNA, 50 uM zinc acetate, 200 nM TF, 25 C, 1 h; high values mean tight binding
# Settings: protein: recombinant; tags: N-terminal polyhistidine and DsRed monomer fusion (pET32a); label: CyDye5-dUTP incorporated in the synthesized complementary strand; 3' TTTTT single-stranded linker to array surface; dsDNA, one strand shown
# In short: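 The binding signal is fluorescence intensity per feature, in arbitrary units, read on an Axon 4000B scanner. Polyhistidine- and DsRed-tagged transcription factors (N-terminal fusions) from E. coli BL21-CodonPlus were purified on Ni–NTA and applied at 200 nM for 1 h at 25 °C to a double-stranded, BSA-blocked custom Agilent array in buffer with 50 µM zinc acetate.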
row,Sequence,binding signal
1,ACAAATCTAATCAACAGCGACCACTGACTGAAGCCGCAGTCGGAGTCACCTAGTGCAG,17200 fluorescence intensity (a.u.)
2,GGAGAGGTGTTCCAATCACAGCCAATATATTTTGAAGAGTCGGAGTCACCTAGTGCAG,7850 fluorescence intensity (a.u.)
3,GGTATGATAAACTTGACTAATTATACCATTGGATCATTGTCGGAGTCACCTAGTGCAG,11000 fluorescence intensity (a.u.)
4,GAAAATTATCTGTATAATAGTTGCATGTTTATCTTCCCTACGGAGTCACCTAGTGCAG,14500 fluorescence intensity (a.u.)
5,AATTAGTCGATTAGTTATTAGATTAGCAGTATGAAATTTTCGGAGTCACCTAGTGCAG,4080 fluorescence intensity (a.u.)
6,GCAATTAACTCTTAATCATATTTAGTTGAAATTAAACATACGGAGTCACCTAGTGCAG,6580 fluorescence intensity (a.u.)
7,ATGGATTGACCCACCCGCATCTTTAGATGCAGCAAACAAGCGGAGTCACCTAGTGCAG,3390 fluorescence intensity (a.u.)
8,CAAATAATTTATAGTGAATGTAATAGCTAATTCATACAATCGGAGTCACCTAGTGCAG,19300 fluorescence intensity (a.u.)
9,ATAATTGATTCAACCTCGTTCTTAATTTGATACATCCTTCCGGAGTCACCTAGTGCAG,32300 fluorescence intensity (a.u.)
10,TCTTGATTATTGTGTCCAAACCGAAGTTTACAGTCCGTTTCGGAGTCACCTAGTGCAG,36900 fluorescence intensity (a.u.)
11,GGGATTGGCCAGTGAAATTAGTAACTTTTGCGGAGTCACACGGAGTCACCTAGTGCAG,9240 fluorescence intensity (a.u.)
12,CACAATTTAATATGGTTATAATTGTAATCTCACATATCCTCGGAGTCACCTAGTGCAG,7610 fluorescence intensity (a.u.)
13,GACGTTTTGACTGGCCAAATCTAGCTAGCCAGCCAACGATCGGAGTCACCTAGTGCAG,3980 fluorescence intensity (a.u.)
14,GGATTTAATTGCAAGGAGTACGAGTTCATATTTCCTTTGGCGGAGTCACCTAGTGCAG,28200 fluorescence intensity (a.u.)
15,CCTGATAATTGTCACAATCTTGACGGGGTTTGGTCTCATCCGGAGTCACCTAGTGCAG,38000 fluorescence intensity (a.u.)
16,GTAAATTTACCATGTAATTCATTAGTGAAGACGTATCAGGCGGAGTCACCTAGTGCAG,23000 fluorescence intensity (a.u.)
17,TTTCAATCAGTTTACAGTACAAAATTAGCAATCTCGATGCCGGAGTCACCTAGTGCAG,20400 fluorescence intensity (a.u.)
18,TCCAAAGATTTGATGTGATGTTTTGGAAAAGAAATTTTGACGGAGTCACCTAGTGCAG,4330 fluorescence intensity (a.u.)
19,AAATATCTAATTAGTTTTATTAAATCTAACAATGGATATACGGAGTCACCTAGTGCAG,4950 fluorescence intensity (a.u.)
20,TGGCGAATTAAGTCAATCTGATCATGTGCCCTGTTCCTCTCGGAGTCACCTAGTGCAG,5270 fluorescence intensity (a.u.)
21,ATAATAAACAATCAAAGCCCCACGTTTTCCCACTCGCCCCCGGAGTCACCTAGTGCAG,9100 fluorescence intensity (a.u.)

row,Sequence,binding signal
1,GAGGACCTTGATTAGCTGTTGTAGACTTGTAGACGATCAGCGGAGTCACCTAGTGCAG,28300 fluorescence intensity (a.u.)
2,AAAGACAACACATATAATAGATTAGCTATAAGATTGGCTACGGAGTCACCTAGTGCAG,7490 fluorescence intensity (a.u.)
3,ACCATGGAAATTTGTTATGTTAATCGACCTAATTAACTGACGGAGTCACCTAGTGCAG,3780 fluorescence intensity (a.u.)
4,ATATAATAGTTTTATTTATAAATTATTTTCATTTGCTAAGCGGAGTCACCTAGTGCAG,4130 fluorescence intensity (a.u.)
5,ATATGTTAATAAATTAGTATTTAGAACTTTCGTCGACTTACGGAGTCACCTAGTGCAG,4450 fluorescence intensity (a.u.)
6,ATAGGAATATCAATTAGGAATACGATGCGATACCTAACTACGGAGTCACCTAGTGCAG,4980 fluorescence intensity (a.u.)
7,CCCCATGATTTTGAAATTCAACAGACTAAATTTGTTGAAACGGAGTCACCTAGTGCAG,15000 fluorescence intensity (a.u.)
8,GCCCAGATTGAACTTGAACGAAAACTCTGGAGGGAAAACTCGGAGTCACCTAGTGCAG,5640 fluorescence intensity (a.u.)
9,TCCCCTGATTGCTATCATAAGTGCCATTTTAGGGTGTTGACGGAGTCACCTAGTGCAG,26100 fluorescence intensity (a.u.)
10,TGTTCATTAAACAGATTAATTTGGGCTATAAACACCGTAACGGAGTCACCTAGTGCAG,20300 fluorescence intensity (a.u.)
11,ATGATTAGGATGTCACATACACTCCATTTCTTAGAAATTTCGGAGTCACCTAGTGCAG,7600 fluorescence intensity (a.u.)
12,AAGTAGCTTTTACCAATTAACTGATTTTAACTTTGGGGACCGGAGTCACCTAGTGCAG,8800 fluorescence intensity (a.u.)
13,AATTAATAGGCGGGCTTGATTCGTTCGTTCGCTCGCGGGCCGGAGTCACCTAGTGCAG,4510 fluorescence intensity (a.u.)
14,CAATTAATTACCTGTTCACCTAGGAAGGACGTTGATCCCTCGGAGTCACCTAGTGCAG,28600 fluorescence intensity (a.u.)
15,GCGACTAACTGTACATAGACATGGAAAAGGATAACATTACCGGAGTCACCTAGTGCAG,3320 fluorescence intensity (a.u.)
16,TTACCAAATTAGTTTAATTAAATAAATAATTAAATATATTCGGAGTCACCTAGTGCAG,11100 fluorescence intensity (a.u.)
17,TTTAATTGTGACGAACACAACGGTGTAATCAGATTGTAGACGGAGTCACCTAGTGCAG,25400 fluorescence intensity (a.u.)
18,TGTAAACAGACAGAGCGAAGCAATCATCCAACCATTCCATCGGAGTCACCTAGTGCAG,8500 fluorescence intensity (a.u.)
19,TGATCTTGATTTATAACCTGTCCGTTCTTGCTGTTGAGTGCGGAGTCACCTAGTGCAG,24600 fluorescence intensity (a.u.)
20,TGGTCCTTGATAATTTGTTGGTCTTGTAGCGTGGGTGTTTCGGAGTCACCTAGTGCAG,3150 fluorescence intensity (a.u.)
21,GGTGATATCGCCATCCAAGTGATTGAGTAGTTGATATAGACGGAGTCACCTAGTGCAG,4660 fluorescence intensity (a.u.)
